# Measured values taken from PubChem BioAssay AID485281 (National Center for Advancing Translational Sciences (NCATS), 2010).
# Screen size: about 350,000 compounds; about 260 (0.074%) were called active. The inconclusive results got no clear call from the source; some entries with a clear call stand among them for comparison. Calls follow the shape of the dose curve; as a rule, active = well fitted inhibition curve with a large enough effect; inconclusive = small, poorly fitted or top-dose-only effect; inactive = no such curve, though single readings can be large or run the other way. Potencies of inconclusive entries are doubtful fits and often do not repeat.
# Target: Ferritin light chain (Equus caballus) (UniProt P02791)
# Chain of UniProt P02791 (P02791 whole entry, looked up): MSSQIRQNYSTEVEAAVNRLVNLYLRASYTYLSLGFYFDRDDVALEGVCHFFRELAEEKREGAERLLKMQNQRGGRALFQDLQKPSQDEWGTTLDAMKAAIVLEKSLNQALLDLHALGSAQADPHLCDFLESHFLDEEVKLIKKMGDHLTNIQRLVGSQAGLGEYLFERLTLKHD
# Experiment: qHTS Assay for Identification of Novel General Anesthetics; also: nearly all actives have a fitted effect of over 20% in size
# Details: apoferritin/1-aminoanthracene competitive binding, fluorescence; series mostly up to 77.5 µM
# In short: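 Horse-spleen apoferritin (10 uM) was mixed with 50% saturated 1-aminoanthracene in PBS, exposed to compounds for 10 min at room temperature, and read for fluorescence (ex 380 nm, em 535 nm). Competitive displacement was fitted with a four-parameter Hill equation.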
# Potency is read from the fitted curve at half-maximal effect; tags tell the direction and shape of the fitted curve.
row,SMILES,Potency
1,O=C(CSc1nc(-c2cccs2)cc(C(F)(F)F)n1)NCc1ccccc1,"inconclusive: 35.5 µM [inhibitor, partial curve]"
2,CCC1CCCCN1C(=O)COC(=O)c1cc(Br)ccc1Cl (stereo unspecified),"inconclusive: 35.5 µM [inhibitor, partial curve]"
3,O=C(NCc1ccco1)C1CC2CCC1C2 (stereo unspecified),"inconclusive: 22.4 µM [inhibitor, single point]"
4,COc1cccc(NC(=O)c2ccc(C(=O)c3ccccc3)o2)c1,"inconclusive: 28.2 µM [inhibitor, partial curve]"
5,Clc1ccc(-n2ncc3c(NCc4ccccn4)ncnc32)cc1,"inconclusive: 31.6 µM [inhibitor, partial curve]"
6,CCCCCCCCCCC1=C(C)C(=O)C(OC)=C(OC)C1=O,"inconclusive: 28.2 µM [inhibitor, single point]"
7,CCC1(CC)NC(=O)N(CC(=O)OCC(=O)Nc2ccc(C(F)(F)F)cc2)C1=O,"inconclusive: 28.2 µM [inhibitor, single point]"
8,CC(C)OC(=O)c1cc(NC(=S)Nc2ccc([N+](=O)[O-])cc2)cc(C(=O)OC(C)C)c1,inactive
9,CCOC(=O)c1nc2cc3n(c(CC(C)C)c-2c1C)CC(C)=C3C,inactive
10,COc1cccc(-c2csc3nnc(SCC(=O)NCc4cccs4)n23)c1,"inconclusive: 25.1 µM [inhibitor, partial curve]"
11,CNC(=S)SCCOc1ccc(C)cc1,"inconclusive: 15.8 µM [inhibitor, partial curve]"
12,O=C(CO/N=C/c1c(Cl)cccc1Cl)NNC(=O)c1cccc(Cl)c1,"inconclusive: 35.5 µM [inhibitor, partial curve]"
13,CCC(C)C(NC(=O)C(Cc1ccc(O)cc1)NC(=O)C(N)C(C)C)C(=O)NC(Cc1cnc[nH]1)C(=O)N1CCCC1C(=O)NC(Cc1ccccc1)C(=O)O (stereo unspecified),inactive
14,CC(=O)c1cccc(N=c2scc(-c3ccc(S(=O)(=O)N4CCOCC4)cc3)n2CCO)c1,inactive
15,COc1cccc(/C=N/NC(=O)c2c(-c3ccccc3)noc2C)c1O,inactive
16,Cc1nc2nc(SCC(=O)NC3CCC(C)CC3)nn2c(C)c1Cc1ccccc1Cl (stereo unspecified),"inconclusive: 31.6 µM [inhibitor, partial curve]"
17,CCCC(C)C(=O)Nc1cc([N+](=O)[O-])ccc1F (stereo unspecified),"inconclusive: 28.2 µM [inhibitor, single point]"
18,Cc1nn(-c2ccc(Br)cc2)c(=O)c2ccccc12,"inconclusive: 35.5 µM [inhibitor, single point]"
19,Cc1ccc(S(=O)(=O)C(CNC(=O)c2ccc(C(F)(F)F)cc2)c2ccco2)cc1 (stereo unspecified),"inconclusive: 14.1 µM [inhibitor, partial curve]"
20,Cc1cccc(-n2ccc(=O)c(C(=O)Nc3ccc(S(=O)(=O)N4CCOCC4)cc3)n2)c1,"inconclusive: 3.55 µM [inhibitor, partial curve]"
21,CCc1ccc(OCc2cnc(Cl)s2)cc1,"inconclusive: 39.8 µM [inhibitor, partial curve]"
22,Cc1ccc(S(=O)(=O)n2nc(-c3ccco3)nc2NCc2ccc(N(C)C)cc2)cc1,inactive
23,CCOC(=O)c1ccc(NC(=O)CCC(=O)N2CCSc3ccccc32)cc1,inactive

row,SMILES,Potency
1,Cc1cccc(NS(=O)(=O)Cc2ccccc2)c1C,"inconclusive: 31.6 µM [inhibitor, partial curve]"
2,O=C(Nc1ccc(F)cc1)c1ccc2c(c1)NC(=O)c1ccccc1S2,inactive
3,CCc1ccc(NS(=O)(=O)c2c(-c3ccccc3)csc2C(=O)OC)cc1,"inconclusive: 14.1 µM [inhibitor, partial curve, poor fit]"
4,O=C(Nc1nc2c(Cl)cccc2s1)c1ccc(Br)o1,"inconclusive: 35.5 µM [inhibitor, partial curve]"
5,COc1ccc(N2CCN(C(=O)Cn3c(-c4cccs4)cc4ccccc43)CC2)cc1,inactive
6,COc1ccccc1C(=O)C1CCCN(C(=O)CSc2ccccn2)C1 (stereo unspecified),"inconclusive: 15.8 µM [inhibitor, partial curve]"
7,Clc1cccc(-n2ncc3c(Nc4ccc5c(c4)OCCO5)ncnc32)c1,inactive
8,Cc1nc2cc(OCc3cc(C(=O)NC(C)c4cn(C)nc4C)no3)ccc2s1 (stereo unspecified),"inconclusive: 25.1 µM [inhibitor, partial curve]"
9,CC(=O)N1CCc2cc(S(=O)(=O)NC(Cc3ccccc3)C(=O)Nc3ccc(C)cc3C)ccc21 (stereo unspecified),"inconclusive: 31.6 µM [inhibitor, partial curve]"
10,COc1cc(OC)c(N(C)C(=O)CSc2c3c(nc4ccc(Cl)cc24)CCCC3)cc1Cl,"inconclusive: 17.8 µM [inhibitor, partial curve]"
11,CCc1ccc(NC(=O)CC2C(=O)N(c3ccc(OC)cc3)C(=O)N2Cc2cccs2)cc1 (stereo unspecified),inactive
12,CC12CCCCC1NS(=O)(=O)OC2 (stereo unspecified),"inconclusive: 39.8 µM [inhibitor, partial curve]"
13,CCCCCCc1ccc(-c2ncc(N)cn2)cc1,"inconclusive: 35.5 µM [inhibitor, single point]"
14,CCc1cc2c3c(c(=O)oc2cc1OC(C)C(=O)O)CCCC3 (stereo unspecified),inactive
15,c1cnc2c(c1)ccc1cccnc12,inactive
16,O=S(=O)(NCCc1ccccc1)c1ccc(Br)cc1,"inconclusive: 17.8 µM [inhibitor, partial curve]"
17,Cn1c(=O)c(-c2cc(Br)ccc2N)nc2ccccc21,"inconclusive: 31.6 µM [inhibitor, partial curve]"
18,COc1cccc(-c2nc(SCC(=O)NCC3CCCO3)c(-c3ccc(Cl)cc3)[nH]2)c1 (stereo unspecified),inactive
19,CCOc1ccc(C2=Nn3c(nnc3-c3ccccc3OC)SC2)cc1,"inconclusive: 25.1 µM [inhibitor, partial curve]"
20,Cc1ccc(S(=O)(=O)NCC(=O)NCc2ccncc2)cc1,inactive
21,O=C(Cc1ccccc1)NCC(=O)N1CCCC1,inactive
22,CCOc1ccc2[nH]c(SCC(=O)OC)c([N+](=O)[O-])c2c1,inactive
23,O=C(CN1C(=O)C2C3C=CC(C3)C2C1=O)OCC(=O)c1ccc(Br)cc1 (stereo unspecified),"inconclusive: 17.8 µM [inhibitor, partial curve]"
